Assay results reported in the supplement of paper PMC7826260.
Some of the results follow. Cleavage of a single-stranded DNA pool by Rep nickase domains was read by sequencing for 1 h at 37 °C with 3 µM enzyme; only the middle of the 90-letter strands is printed. Uncut reads are compared with the no-enzyme pool on a log2 scale; strong cutting gives strongly negative numbers. There is no active / inactive call. Because reads are shares of a total, they shift together; values above 0 arise when much of the pool is cut.

Assays:
Test in all cases: uncleaved DNA left, log2 of reads against the no-enzyme library (log2 ratio); higher = less cleavage (more negative = more Rep cleavage of the k-mer); sequences stand for … in CTCGTCCG…ACCGGAGA
[1] = test system: T1, Rep nickase domain of Muscovy duck circovirus
T1 sequence (protein, residues 1-111, tag omitted): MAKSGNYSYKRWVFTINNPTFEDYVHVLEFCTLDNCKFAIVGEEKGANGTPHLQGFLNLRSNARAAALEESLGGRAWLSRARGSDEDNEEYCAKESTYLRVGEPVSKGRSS
Description: (§1)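 A pool of 90-nt single-stranded DNAs with seven random bases just before the constant AC of the nick site (name = the seven bases) was cut by 3 µM recombinant His6-SUMO-tagged Rep nickase domain (300 nM DNA, 50 mM HEPES pH 8.0, 50 mM NaCl, 1 mM MnCl2, 1 h, 37 °C, three replicates). Uncut DNA was amplified and sequenced.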

[2] = test system: T2, Rep nickase domain of banana bunchy top virus
T2 sequence (protein, residues 1-94, tag omitted): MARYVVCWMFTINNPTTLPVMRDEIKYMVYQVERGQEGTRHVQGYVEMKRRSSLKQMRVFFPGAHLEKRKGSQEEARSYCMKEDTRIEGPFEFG
Description: as §1

[3] = test system: T3, Rep nickase domain of cabbage leaf curl virus
T3 sequence (protein, residues 1-116, tag omitted): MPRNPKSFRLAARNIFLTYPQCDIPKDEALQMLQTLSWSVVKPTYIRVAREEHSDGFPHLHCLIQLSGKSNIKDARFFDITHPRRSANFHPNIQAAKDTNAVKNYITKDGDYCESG
Description: as §1

[4] = test system: T4, Rep nickase domain of chickpea chlorotic dwarf virus
T4 sequence (protein, residues 1-124, tag omitted): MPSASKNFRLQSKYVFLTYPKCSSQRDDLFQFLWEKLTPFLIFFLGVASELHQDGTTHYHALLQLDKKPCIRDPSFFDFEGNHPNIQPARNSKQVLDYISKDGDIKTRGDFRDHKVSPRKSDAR
Description: as §1

[5] = test system: T5, Rep nickase domain of faba bean necrotic yellows virus
T5 sequence (protein, residues 1-98, tag omitted): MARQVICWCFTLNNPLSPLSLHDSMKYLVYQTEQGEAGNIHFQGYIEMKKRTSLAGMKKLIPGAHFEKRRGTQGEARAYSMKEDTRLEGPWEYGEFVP
Description: as §1

[6] = test system: T6, Rep nickase domain of maize striate mosaic virus
T6 sequence (protein, residues 1-117, tag omitted): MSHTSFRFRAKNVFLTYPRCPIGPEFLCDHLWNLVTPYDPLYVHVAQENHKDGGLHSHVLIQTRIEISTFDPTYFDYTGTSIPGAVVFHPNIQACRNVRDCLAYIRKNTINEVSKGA
Description: as §1

[7] = test system: T7, Rep nickase domain of porcine circovirus 2
T7 sequence (protein, residues 2-116, tag omitted): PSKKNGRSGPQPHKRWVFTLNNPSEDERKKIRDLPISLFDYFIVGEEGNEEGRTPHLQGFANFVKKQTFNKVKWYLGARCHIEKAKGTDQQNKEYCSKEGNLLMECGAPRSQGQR
Description: as §1

[8] = test system: T8, Rep nickase domain of tomato golden mosaic virus
T8 sequence (protein, residues 1-124, tag omitted): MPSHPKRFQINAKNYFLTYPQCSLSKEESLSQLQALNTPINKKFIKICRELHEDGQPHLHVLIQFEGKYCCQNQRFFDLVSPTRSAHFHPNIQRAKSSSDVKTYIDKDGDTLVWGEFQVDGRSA
Description: as §1

[9] = test system: T9, Rep nickase domain of tomato yellow leaf curl virus
T9 sequence (protein, residues 1-136, tag omitted): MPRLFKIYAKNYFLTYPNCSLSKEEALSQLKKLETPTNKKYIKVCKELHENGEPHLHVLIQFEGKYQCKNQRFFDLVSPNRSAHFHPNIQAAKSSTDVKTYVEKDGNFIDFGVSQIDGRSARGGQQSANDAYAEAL
Description: as §1

[10] = test system: T10, Rep nickase domain of wheat dwarf virus
T10 sequence (protein, residues 1-137, tag omitted): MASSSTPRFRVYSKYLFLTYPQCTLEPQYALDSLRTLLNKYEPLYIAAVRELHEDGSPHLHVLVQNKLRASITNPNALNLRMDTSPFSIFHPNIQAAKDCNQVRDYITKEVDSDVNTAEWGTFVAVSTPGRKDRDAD
Description: as §1

Sequence	uncleaved DNA left (log2) [1]	uncleaved DNA left (log2) [2]	uncleaved DNA left (log2) [3]	uncleaved DNA left (log2) [4]	uncleaved DNA left (log2) [5]	uncleaved DNA left (log2) [6]	uncleaved DNA left (log2) [7]	uncleaved DNA left (log2) [8]	uncleaved DNA left (log2) [9]	uncleaved DNA left (log2) [10]
GCCGTGT	-0.0999	-0.144	-0.209	-0.0915	-0.146	-0.384	-0.188	-0.153	-0.181	-0.326
ATTAAAT	-0.348	-0.145	-0.0417	-0.567	-0.12	-0.557	-1.81	-0.0119	-0.0807	0.0271
CCAGTGA	0.0734	0.0407	-0.384	-0.494	0.0222	-0.935	0.0753	-0.00656	0.112	-0.00373
ACCCTGC	-0.0312	-0.233	-0.688	-0.59	-0.0952	-1.05	-0.0733	-0.0729	-0.132	-0.28
ACCAGGC	0.0801	0.127	-0.329	-0.177	0.141	-0.883	0.239	0.0677	0.0483	-0.0779
CAGTAAA	-0.134	-0.0197	-0.139	-0.91	-0.205	-0.712	-3.15	0.0726	-0.119	-0.0438
CTTACGA	-0.0439	-0.0661	-0.246	-1.31	-0.0523	-0.948	0.0705	-0.0455	-0.121	-0.0119
CTTGCAC	0.00948	-0.0274	-0.514	-0.715	0.0911	-1.01	0.0427	-0.0777	-0.0344	-0.141
GAACAAT	0.124	0.0618	0.555	0.569	0.0195	1.7	-0.009	0.0114	0.0451	0.221
TTCATGA	0.131	0.173	0.284	0.433	0.117	-0.0355	0.235	0.102	0.19	0.146
TGCATCT	-0.0785	-0.062	-0.155	-1.5	-0.0687	-0.713	-0.274	-0.043	-0.0293	-0.107
AACTGAA	0.0251	0.165	0.144	0.522	0.126	0.817	-1.87	0.131	0.0379	0.178
GTAGGGT	0.098	0.00641	0.287	1.11	0.0557	1.7	-0.0544	0.129	0.118	0.0825
TGTTGCG	-0.218	-0.25	0.0667	0.938	-0.113	1.48	-0.0865	-0.258	-0.369	-0.246
CGGGCCA	-0.00939	0.0746	0.654	1.39	-0.0271	1.72	0.117	0.0176	-0.00477	0.132
